From PubChem BioAssay (NCI)
Several values for one entry are separate records, joined by “and”; a condition that tells them apart may be missing. Identical values can stand only once.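 Where inhibition never reached the appropriate level, the endpoint shown equals the highest concentration tested. Otherwise, values were interpolated linearly from a five-concentration, 48-hour dose response in 96-well plates. The concentration for 50% growth inhibition is given as GI50. TGI is the concentration that stops growth completely.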

These molecules were tested on NCI-H322M lung (assay: growth of human tumour cells (NCI), 48 h).
For `COc1ccc(C(C2=C(O)CC(C)OC2=O)C2=C(O)CC(C)OC2=O)cc1` (centres undefined), the TGI was > 100 µM. In the case of `COC1C(O)C(C)OC(O[C@H]2CC[C@@]3(C)C(CC[C@@H]4[C@@H]3CC[C@]3(C)[C@@H](C(C)OC5OC(CO)C(O)C(O)C5O)CC[C@]43O)C2)C1O` (some centres undefined), the TGI is reported as > 25 µM. For `N#Cc1ccc(-c2ccc(Cl)cc2)n(C2OC(CO)C(O)C(O)C2O)c1=S` (centres undefined), the TGI was > 100 µM. `CCN(CC)CCOc1nc2ccccc2c2c1-c1ccc(OC)cc1C2=O` showed a GI50 of 0.461 µM and a TGI of 2.65 µM. For `CC1=CC2(C)/C=C(C)/C=C\CC(O)/C=C3/C=CC(=C4C(=O)OC2(CC1C)C4=O)OC3` (centres undefined), the GI50 was 19.2 µM and the TGI was 45.1 µM. With `C=CCC1(CN(C)C)CC/C(=C\c2ccc3c(c2)OCO3)C1=O` (centres undefined) the TGI was > 100 µM. `O=C1C2=C(C(=O)c3ccccc31)C(O)(S(=O)(=O)O)C(O)(S(=O)(=O)O)C1N=CC=CC21` (centres undefined) was tested, and the GI50 was 2.74 µM and 2.88 µM and the TGI was 23.5 µM and 12.6 µM. In the case of `Cc1cc(N(CCC#N)CCC#N)ccc1/C(N=Nc1ccc(C(=O)O)cc1)=N\NC(=O)c1ccccc1`, the TGI is reported as > 100 µM. For `COc1ccc(N=NC2=C(O)CCC2=O)cc1`, the TGI was > 100 µM. In the case of `CC(=O)OC1CC2(C)C(=CC1C1SCCS1)CCC1C2CCC2(C)C(OC(C)=O)CCC12` (centres undefined), the TGI is reported as > 100 µM. `CC(=O)C(CN1C(=O)c2ccccc2C1=O)C(C)=O` was tested, and the TGI was > 100 µM. Work on `Cc1ccc2sc3c(NCCCN)nc4ccccc4c3c(=O)c2c1` yielded a GI50 of 1.78 µM and a TGI of 3.53 µM. `CCN1CCN(c2ccc(NC(=O)Nc3nc4ccc(-c5ccccc5OC)cc4s3)cc2)CC1` gave a GI50 of 1.53 µM and a TGI of 3.03 µM. In the case of `Cc1cn(C2CC(O)C(Cn3nncc3Cn3nc(Br)c(=O)[nH]c3=O)O2)c(=O)[nH]c1=O` (centres undefined), the TGI is reported as > 100 µM. With `O=C1C=CC2C3C(=O)N(c4ccccc4)C(=O)C3C1N2Cc1ccccc1` (centres undefined) the GI50 was 10.2 µM and the TGI was 23.7 µM. `Oc1c(C(Nc2ccccn2)c2ccccc2)ccc2cccnc12` (centres undefined) gave a TGI of 42.8 µM. In the case of `c1ccc2c(N=NSc3ncnc4nc[nH]c34)c3ccccc3nc2c1`, the GI50 is reported as 2.52 µM and the TGI is reported as 8.6 µM. With `CC1(C)CC(=O)C(CC2C(=O)CCCC2=O)C(=O)C1` the TGI was > 100 µM. `O=C(O)C(Cc1ccccc1)Cc1ccccc1` was tested, and the TGI was > 100 µM. In the case of `Cc1ccsc1C(NC(=O)c1ccccc1)c1cc(Cl)c2cccnc2c1O` (centres undefined), the GI50 is reported as 0.692 µM and the TGI is reported as 14.5 µM. With `NC1CC(=O)c2c(-c3cccs3)sc(-c3cccs3)c21` (centres undefined) the GI50 was 44.4 µM and the TGI was > 100 µM. Molecule `COC(=O)CC[C@@H](C)[C@H]1CC[C@H]2[C@@H]3CC[C@@H]4C[C@H](O)CC[C@]4(C)[C@H]3CC[C@]12C` has a TGI of 35.8 µM. In the case of `Cc1ccc(C)n1-c1ccccc1C1C=Cn2c(=O)oc3c(OC(C)C)c(OC(C)C)c(O)c1c32` (centres undefined), the TGI is reported as > 100 µM. `CC(=O)C1=C(C)N(Cc2ccccc2)C2(O)C=CC(=O)C3=C(O)c4ccccc4C(=O)C312` (centres undefined) showed a GI50 of 12.4 µM and a TGI of 26.4 µM. `Oc1c(C(c2ccc(F)cc2)N2CCCCC2)ccc2cncnc12` (centres undefined) was tested, and the GI50 was 1.73 µM and the TGI was > 100 µM. For `CCCCCCc1ccc(CCCCCCCC(=O)O)o1`, the TGI was > 100 µM. With `CC(=O)/C=C(/C)[O-].CC(=O)/C=C(/C)[O-].CC(=O)[CH-]C(C)=O.CC(=O)[CH-]C(C)=O.[Zr+4]` the GI50 was > 100 µM and the TGI was > 100 µM. `COc1cc2nc(-c3cccs3)nc(N3CCN(c4ccccc4)CC3)c2cc1OC` was tested, and the TGI was > 100 µM. For `Nc1nc(-c2ccc3c(c2)/C(=C\c2cc(Br)c(O)c(Br)c2)C(=O)N3)cs1`, the GI50 was > 25 µM and the TGI was > 25 µM. With `Cc1cc(I)cc(CN(C)CCCN2CCC(C)CC2)c1O` the GI50 was 16.6 µM and the TGI was 37.6 µM. In the case of `CCCCCCCCCCCC(=O)N(CCCCCCCCC)CC(O)C(O)C(OC1OC(CO)C(O)C(O)C1O)C(O)CO` (centres undefined), the TGI is reported as 37.6 µM. `O=C1C(c2ccccc2)=C(c2ccccc2)C1(Cl)Cl` was tested, and the TGI was 23.7 µM. With `CC(C)OC1=C(CC2(C)OCCO2)C(=O)C12OCCO2` the TGI was > 100 µM. In the case of `COC(=O)NC(Cc1ccccc1)NC(=O)OC(C)(C)C` (centres undefined), the TGI is reported as > 100 µM. Work on `Clc1nc2nc(N3CCNCC3)nc(N3CCCC3)c2[nH]1` yielded a TGI of 30 µM. For `CN(C(=O)C(C)(C)C)c1ccccc1I(=O)=O`, the GI50 was > 100 µM and the TGI was > 100 µM. Molecule `O=C(CSc1nc2ccc(I)cc2c(=O)n1Cc1ccccc1)Nc1ccccc1` has a TGI of 50.4 µM. With `O=c1c2cccnc2oc2c(Cl)cc(-c3nn[nH]n3)cc12` the TGI was > 100 µM. For `COc1ccc(/C(=N/O)c2ccccc2C2=Nc3ccccc3C(NCc3ccccc3)O2)cc1C` (centres undefined), the TGI was > 100 µM. For `CC(C)[C@@H](C(=O)O[C@@H]1/C=C/C(=O)O[C@@H](C)CCC/C=C/[C@@H]2C[C@H](O)C[C@H]21)N(C)C`, the GI50 was 13.2 µM and the TGI was > 68.4 µM. `CC1Cc2c(Cl)ncnc2N(C)c2ccccc21` (centres undefined) showed a GI50 of 2.57 µM and a TGI of 35.7 µM. In the case of `CC1(c2ccc(F)cc2)C2C(=O)NC(=O)C1C(=O)NC2=O` (centres undefined), the TGI is reported as > 100 µM.
